# Measured values: the supplement of paper PMC8728848
# Some of the results follow.
# B1: LgFlo1 (Saccharomyces pastorianus), B3IUA8 (protein)
# chain: SGSTQACLPVGSRKNGMNVNFYKYSLQDSTTYSDPQYMAYKYSDTKKLGSVSGQTHLSIYYGPNTAFWNTASWSSDLFGFYTTPTNVTVEMTGYFLPPQTGSYTFKFATVDDSAILSVGGSIAFECCAQEQPPITSTDFTINGIKPWDAATPTDIKGSTYMYAGYYYPIKIVYSNAKALARLPVSVVLPDGTEVNDDFEGYVYSFDDDLSQSNCTIPDPSKHTTS
# Key:
# Test in all cases: glycan array binding signal (z-score within array); higher = stronger binding
# Conditions in all cases: glycan notation: IUPAC condensed, linker removed
# [1] = biological target: Gal(b1-3)GlcNAc(b1-6)GalNAc
# Outline: (§1)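 The Consortium for Functional Glycomics database supplied 3228 glycan arrays, of which those lacking an available protein sequence were dropped. The binding signal, a within-array Z-score, was averaged across arrays of the same protein sequence and across linkers. Negative scores can be read as non-binding.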
# [2] = biological target: Gal(b1-3)GlcNAc(b1-6)[Gal(b1-3)]GalNAc
# Outline: as §1
# Gal(b1-3)GlcNAc6S = biological target: Gal(b1-3)GlcNAc6S
# Outline: as §1
# [3] = biological target: Gal(b1-3)[Fuc(a1-4)]GlcNAc
# Outline: as §1
# [4] = biological target: Gal(b1-3)[Fuc(a1-4)]GlcNAc(b1-2)Man
# Outline: as §1
# [5] = biological target: Gal(b1-3)[Fuc(a1-4)]GlcNAc(b1-2)Man(a1-3)[Gal(b1-3)[Fuc(a1-4)]GlcNAc(b1-2)Man(a1-6)]Man(b1-4)GlcNAc(b1-4)[Fuc(a1-6)]GlcNAc
# Outline: as §1
# [6] = biological target: Gal(b1-3)[Fuc(a1-4)]GlcNAc(b1-3)Gal(b1-3)[Fuc(a1-4)]GlcNAc
# Outline: as §1
# [7] = biological target: Gal(b1-3)[Fuc(a1-4)]GlcNAc(b1-3)Gal(b1-4)[Fuc(a1-3)]GlcNAc
# Outline: as §1
# [8] = biological target: Gal(b1-3)[Fuc(a1-4)]GlcNAc(b1-6)GalNAc
# Outline: as §1
# [9] = biological target: Gal(b1-3)[GlcNAc(b1-6)]GalNAc
# Outline: as §1
# [10] = biological target: Gal(b1-3)[Neu5Ac(a2-6)]GalNAc
# Outline: as §1
# [11] = biological target: Gal(b1-3)[Neu5Ac(a2-6)]GlcNAc(b1-4)Gal(b1-4)Glc
# Outline: as §1
# [12] = biological target: Gal(b1-3)[Neu5Ac(b2-6)]GalNAc
# Outline: as §1
# Gal(b1-4)Gal = biological target: Gal(b1-4)Gal
# Outline: as §1
# [13] = biological target: Gal(b1-4)GalNAc(a1-3)[Fuc(a1-2)]Gal(b1-4)GlcNAc
# Outline: as §1
# [14] = biological target: Gal(b1-4)GalNAc(b1-3)[Fuc(a1-2)]Gal(b1-4)GlcNAc
# Outline: as §1
# Gal(b1-4)Glc = biological target: Gal(b1-4)Glc
# Outline: as §1
# Gal(b1-4)Glc6S = biological target: Gal(b1-4)Glc6S
# Outline: as §1
# Gal(b1-4)GlcNAc = biological target: Gal(b1-4)GlcNAc
# Outline: as §1
# [15] = biological target: Gal(b1-4)GlcNAc(a1-6)Gal(b1-4)GlcNAc
# Outline: as §1
# Gal(b1-4)GlcNAc(b1-2)Man = biological target: Gal(b1-4)GlcNAc(b1-2)Man
# Outline: as §1
# [16] = biological target: Gal(b1-4)GlcNAc(b1-2)Man(a1-3)Man(b1-4)GlcNAc(b1-4)GlcNAc
# Outline: as §1
# [17] = biological target: Gal(b1-4)GlcNAc(b1-2)Man(a1-3)[Gal(b1-4)GlcNAc(b1-2)Man(a1-6)]Man(b1-4)GlcNAc(b1-4)GlcNAc
# Outline: as §1
# [18] = biological target: Gal(b1-4)GlcNAc(b1-2)Man(a1-3)[Gal(b1-4)GlcNAc(b1-2)Man(a1-6)]Man(b1-4)GlcNAc(b1-4)[Fuc(a1-6)]GlcNAc
# Outline: as §1
# [19] = biological target: Gal(b1-4)GlcNAc(b1-2)Man(a1-3)[Gal(b1-4)GlcNAc(b1-2)Man(a1-6)][Gal(b1-4)GlcNAc(b1-4)]Man(b1-4)GlcNAc(b1-4)[Fuc(a1-6)]GlcNAc
# Outline: as §1
# [20] = biological target: Gal(b1-4)GlcNAc(b1-2)Man(a1-3)[Gal(b1-4)GlcNAc(b1-2)Man(a1-6)][GlcNAc(b1-4)]Man(b1-4)GlcNAc(b1-4)[Fuc(a1-6)]GlcNAc
# Outline: as §1
# [21] = biological target: Gal(b1-4)GlcNAc(b1-2)Man(a1-3)[GlcNAc(b1-2)Man(a1-6)]Man(b1-4)GlcNAc(b1-4)GlcNAc
# Outline: as §1
# [22] = biological target: Gal(b1-4)GlcNAc(b1-2)Man(a1-3)[GlcNAc(b1-4)][Gal(b1-4)GlcNAc(b1-2)Man(a1-6)]Man(b1-4)GlcNAc(b1-4)GlcNAc
# Outline: as §1
# [23] = biological target: Gal(b1-4)GlcNAc(b1-2)Man(a1-3)[Man(a1-6)]Man(b1-4)GlcNAc(b1-4)GlcNAc
# Outline: as §1
# [24] = biological target: Gal(b1-4)GlcNAc(b1-2)Man(a1-6)Man(b1-4)GlcNAc(b1-4)GlcNAc
# Outline: as §1
# [25] = biological target: Gal(b1-4)GlcNAc(b1-2)Man(a1-6)[GlcNAc(b1-2)Man(a1-3)]Man(b1-4)GlcNAc(b1-4)GlcNAc
# Outline: as §1
# [26] = biological target: Gal(b1-4)GlcNAc(b1-2)Man(a1-6)[Man(a1-3)]Man(b1-4)GlcNAc(b1-4)GlcNAc
# Outline: as §1
# [27] = biological target: Gal(b1-4)GlcNAc(b1-2)[Gal(b1-4)GlcNAc(b1-4)]Man(a1-3)[Gal(b1-4)GlcNAc(b1-2)Man(a1-6)]Man(b1-4)GlcNAc(b1-4)GlcNAc
# Outline: as §1
# [28] = biological target: Gal(b1-4)GlcNAc(b1-2)[Gal(b1-4)GlcNAc(b1-4)]Man(a1-3)[Gal(b1-4)GlcNAc(b1-2)[Gal(b1-4)GlcNAc(b1-6)]Man(a1-6)]Man(b1-4)GlcNAc(b1-4)GlcNAc
# Outline: as §1
# [29] = biological target: Gal(b1-4)GlcNAc(b1-2)[Gal(b1-4)GlcNAc(b1-4)]Man(a1-3)[GlcNAc(b1-4)][Gal(b1-4)GlcNAc(b1-2)Man(a1-6)]Man(b1-4)GlcNAc(b1-4)GlcNAc
# Outline: as §1
# [30] = biological target: Gal(b1-4)GlcNAc(b1-2)[Gal(b1-4)GlcNAc(b1-4)]Man(a1-3)[GlcNAc(b1-4)][Gal(b1-4)GlcNAc(b1-2)[Gal(b1-4)GlcNAc(b1-6)]Man(a1-6)]Man(b1-4)GlcNAc(b1-4)GlcNAc
# Outline: as §1
# [31] = biological target: Gal(b1-4)GlcNAc(b1-2)[Gal(b1-4)GlcNAc(b1-6)]Man(a1-6)[Gal(b1-4)GlcNAc(b1-2)Man(a1-3)]Man(b1-4)GlcNAc(b1-4)GlcNAc
# Outline: as §1
# [32] = biological target: Gal(b1-4)GlcNAc(b1-2)[Gal(b1-4)GlcNAc(b1-6)]Man(a1-6)[Gal(b1-4)GlcNAc(b1-2)Man(a1-3)]Man(b1-4)GlcNAc(b1-4)[Fuc(a1-6)]GlcNAc
# Outline: as §1
# [33] = biological target: Gal(b1-4)GlcNAc(b1-2)[Gal(b1-4)GlcNAc(b1-6)]Man(a1-6)[GlcNAc(b1-4)][Gal(b1-4)GlcNAc(b1-2)Man(a1-3)]Man(b1-4)GlcNAc(b1-4)GlcNAc
# Outline: as §1
# [34] = biological target: Gal(b1-4)GlcNAc(b1-2)[Gal(b1-4)GlcNAc(b1-6)]Man(a1-6)[GlcNAc(b1-4)][Gal(b1-4)GlcNAc(b1-2)[Gal(b1-4)GlcNAc(b1-4)]Man(a1-3)]Man(b1-4)GlcNAc(b1-4)[Fuc(a1-6)]GlcNAc
# Outline: as §1
# [35] = biological target: Gal(b1-4)GlcNAc(b1-3)Gal(b1-3)GalNAc
# Outline: as §1
# [36] = biological target: Gal(b1-4)GlcNAc(b1-3)Gal(b1-3)GlcNAc
# Outline: as §1
# [37] = biological target: Gal(b1-4)GlcNAc(b1-3)Gal(b1-4)Glc
# Outline: as §1
# [38] = biological target: Gal(b1-4)GlcNAc(b1-3)Gal(b1-4)GlcNAc
# Outline: as §1
# [39] = biological target: Gal(b1-4)GlcNAc(b1-3)Gal(b1-4)GlcNAc(b1-2)Man(a1-3)[Gal(b1-4)GlcNAc(b1-3)Gal(b1-4)GlcNAc(b1-2)Man(a1-6)]Man(b1-4)GlcNAc(b1-4)GlcNAc
# Outline: as §1
binder,measurement,setting,value
B1,glycan array binding signal (z-score),[1],-0.244
same,glycan array binding signal (z-score),[2],-0.152
same,glycan array binding signal (z-score),Gal(b1-3)GlcNAc6S,0.936
same,glycan array binding signal (z-score),[3],-0.345
same,glycan array binding signal (z-score),[4],1.25
same,glycan array binding signal (z-score),[5],1.61
same,glycan array binding signal (z-score),[6],0.079
same,glycan array binding signal (z-score),[7],-0.366
same,glycan array binding signal (z-score),[8],0.043
same,glycan array binding signal (z-score),[9],-0.193
same,glycan array binding signal (z-score),[10],0.292
same,glycan array binding signal (z-score),[11],-0.149
same,glycan array binding signal (z-score),[12],-0.151
same,glycan array binding signal (z-score),Gal(b1-4)Gal,0.893
same,glycan array binding signal (z-score),[13],-0.29
same,glycan array binding signal (z-score),[14],-0.275
same,glycan array binding signal (z-score),Gal(b1-4)Glc,-0.451
same,glycan array binding signal (z-score),Gal(b1-4)Glc6S,-0.025
same,glycan array binding signal (z-score),Gal(b1-4)GlcNAc,-0.354
same,glycan array binding signal (z-score),[15],-0.339
same,glycan array binding signal (z-score),Gal(b1-4)GlcNAc(b1-2)Man,-0.11
same,glycan array binding signal (z-score),[16],-0.471
same,glycan array binding signal (z-score),[17],-0.432
same,glycan array binding signal (z-score),[18],0.079
same,glycan array binding signal (z-score),[19],-0.422
same,glycan array binding signal (z-score),[20],-0.37
same,glycan array binding signal (z-score),[21],-0.377
same,glycan array binding signal (z-score),[22],-0.121
same,glycan array binding signal (z-score),[23],-0.271
same,glycan array binding signal (z-score),[24],-0.462
same,glycan array binding signal (z-score),[25],-0.333
same,glycan array binding signal (z-score),[26],-0.019
same,glycan array binding signal (z-score),[27],-0.226
same,glycan array binding signal (z-score),[28],-0.165
same,glycan array binding signal (z-score),[29],-0.016
same,glycan array binding signal (z-score),[30],-0.114
same,glycan array binding signal (z-score),[31],0.549
same,glycan array binding signal (z-score),[32],0.56
same,glycan array binding signal (z-score),[33],-0.078
same,glycan array binding signal (z-score),[34],-0.236
same,glycan array binding signal (z-score),[35],-0.353
same,glycan array binding signal (z-score),[36],-0.039
same,glycan array binding signal (z-score),[37],-0.196
same,glycan array binding signal (z-score),[38],-0.291
same,glycan array binding signal (z-score),[39],0.592
